In all, about 81,000 sequences were measured (“one-hybrid fitness for binding parS DNA”: median about -0.17, highest 2% from about 0.51 on). Some of the results follow.
B1: Caulobacter ParB omega fusion; a variant is named by its letters at X, in order, B8GW30 (parent)
chain: MESVVVGEPGMSEGRRGLGRGLSALLGEVDAAPAQAPGEQLGGSREAPIEILQRNPDQPRRTFREEDLEDLSNSIREKGVLQPILVRPSPDTAGEYQIVAGERAWRAAQRAGLKTVPIMVRELDDLAVLEIGIIENVQRADLNVLEEALSYKVLMEKFERTQENIAQTIGKSXSHVANXMRLLXLPDEVQSYLVSGELTAXHARAIAAAADPVALAKQIIEGGLSVRETEALARKAPNLSAGKSKGGRPPRVKDTDTQALESDLSSVLGLDVSIDHRGSTGTLTITYATLEQLDDLCNRLTRGI

Variants of: B1
Assay: one-hybrid fitness for binding parS DNA (scaled: cognate 1, non-cognate 0); higher = stronger binding
Details: with parS DNA site
Method in brief: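 Bacterial one-hybrid selection in E. coli USO rpoZ- hisB- pyrF- with a HIS3 reporter carrying the site 19 bp from the promoter, screening Caulobacter ParB libraries with four specificity codons randomised (NNS). Cells grew 48 hours at 37°C on M9-minus-histidine plus 0.1 mM IPTG and 5 mM 3-AT. Plasmids before and after selection were Illumina-sequenced, three replicate libraries pooled, and variants under 10 reads dropped. Fitness is the log change in variant-to-wild-type read ratio, rescaled to cognate 1, non-cognate 0.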

Variant | one-hybrid fitness for binding parS DNA
NDYG | ≤ 0.2
RHNK | ≤ 0.2
QAQK | ≤ 0.2
FAFM | ≤ 0.2
QAGY | ≤ 0.2
PRGR | ≤ 0.2
HKRR | ≤ 0.2
DSDV | ≤ 0.2
SYRT | ≤ 0.2
HCGR | ≤ 0.2
RVNF | 0.205
PLMY | ≤ 0.2
THST | ≤ 0.2
ACKM | ≤ 0.2
CTIW | ≤ 0.2
LADR | ≤ 0.2
LTIA | ≤ 0.2
LKYL | ≤ 0.2
PLQC | ≤ 0.2
SGTT | ≤ 0.2
PNVI | ≤ 0.2
YHAS | ≤ 0.2
QEYV | ≤ 0.2
AMNE | ≤ 0.2

Variant | one-hybrid fitness for binding parS DNA
SYFT | ≤ 0.2
GATD | ≤ 0.2
SDRN | ≤ 0.2
RVKW | 0.295
NFMG | ≤ 0.2
LKAF | ≤ 0.2
VTTL | ≤ 0.2
RQRW | 0.272
YYPG | ≤ 0.2
QYTQ | ≤ 0.2
MGNL | ≤ 0.2
ISPT | ≤ 0.2
RDEL | ≤ 0.2
PRNC | ≤ 0.2
CPFF | ≤ 0.2
FNVC | ≤ 0.2
RPNG | ≤ 0.2
VPRA | ≤ 0.2
GRFG | ≤ 0.2
EPQC | ≤ 0.2
YFVG | ≤ 0.2
TDNL | ≤ 0.2
QELM | ≤ 0.2
SSEF | ≤ 0.2

Variant | one-hybrid fitness for binding parS DNA
HWTA | ≤ 0.2
QITM | ≤ 0.2
RNFL | ≤ 0.2
YTGA | ≤ 0.2
PPHC | ≤ 0.2
NCVC | ≤ 0.2
RPYV | ≤ 0.2
WPNL | ≤ 0.2
EPAS | ≤ 0.2
CMDY | ≤ 0.2
ASSK | ≤ 0.2
RYWV | ≤ 0.2
IIKG | ≤ 0.2
CCSR | ≤ 0.2
HSVM | ≤ 0.2
VMIG | ≤ 0.2
PKYA | ≤ 0.2
EADG | ≤ 0.2
SWKG | ≤ 0.2
DVAH | ≤ 0.2
PIQF | ≤ 0.2
WRHS | ≤ 0.2
LANV | ≤ 0.2
NSQN | ≤ 0.2

Variant | one-hybrid fitness for binding parS DNA
RSDC | 0.773
VFKC | ≤ 0.2
PSKM | ≤ 0.2
HDMN | ≤ 0.2
QRYR | ≤ 0.2
CRSD | ≤ 0.2
FELR | ≤ 0.2
LSKT | ≤ 0.2
FRPS | ≤ 0.2
YYSM | ≤ 0.2
FIDS | ≤ 0.2
QEIG | ≤ 0.2
QDLI | ≤ 0.2
ATNC | ≤ 0.2
SNLC | ≤ 0.2
HSHH | ≤ 0.2
YIYE | ≤ 0.2
TRDR | ≤ 0.2
WPSM | ≤ 0.2
DGSL | ≤ 0.2
TRPF | ≤ 0.2
PKKR | ≤ 0.2
YNPG | ≤ 0.2
TDPG | ≤ 0.2

Variant | one-hybrid fitness for binding parS DNA
VACY | ≤ 0.2
RGLG | 0.597
DCAR | ≤ 0.2
LCCG | ≤ 0.2
QALR | ≤ 0.2
ILDR | ≤ 0.2
PGEM | ≤ 0.2
FCAD | ≤ 0.2
SLES | ≤ 0.2
QKDK | ≤ 0.2
SGRF | ≤ 0.2
DIGV | ≤ 0.2
GIMR | ≤ 0.2
YFKG | ≤ 0.2
SSAG | ≤ 0.2
HARD | ≤ 0.2
TILN | ≤ 0.2
GSNC | ≤ 0.2
HDVS | ≤ 0.2
SGTI | ≤ 0.2
RDMS | ≤ 0.2
RGNQ | ≤ 0.2
YRAC | ≤ 0.2
AEFI | ≤ 0.2

Variant | one-hybrid fitness for binding parS DNA
PRGN | ≤ 0.2
CHLK | ≤ 0.2
RYDM | 0.29
LAYT | ≤ 0.2
QQPV | ≤ 0.2
GMNI | ≤ 0.2
LAQP | ≤ 0.2
HIGG | ≤ 0.2
DMET | ≤ 0.2
QPQW | ≤ 0.2
NTMM | ≤ 0.2
PLPF | ≤ 0.2
RTNN | 0.424
CKDS | ≤ 0.2
RRYQ | ≤ 0.2
VRMW | ≤ 0.2
GNRP | ≤ 0.2
NMVV | ≤ 0.2
NRNV | ≤ 0.2
SAFN | ≤ 0.2
FTRM | ≤ 0.2
PDDR | ≤ 0.2
CHGR | ≤ 0.2
AGLW | ≤ 0.2

Variant | one-hybrid fitness for binding parS DNA
TQYG | ≤ 0.2
GNTT | ≤ 0.2
LRTD | ≤ 0.2
ECYV | ≤ 0.2
NGSI | ≤ 0.2
RSWV | ≤ 0.2
FTTA | ≤ 0.2
YGIR | ≤ 0.2
HTWG | ≤ 0.2
YHRR | ≤ 0.2
PVET | ≤ 0.2
YPVV | ≤ 0.2
DHDL | ≤ 0.2
GKPL | ≤ 0.2
YTMS | ≤ 0.2
QAGV | ≤ 0.2
KLTP | ≤ 0.2
QHIC | ≤ 0.2
ILLE | ≤ 0.2
IATG | ≤ 0.2
RVTL | ≤ 0.2
EIMS | ≤ 0.2
EKAC | ≤ 0.2
EVPI | ≤ 0.2

Variant | one-hybrid fitness for binding parS DNA
QLLC | ≤ 0.2
DIPH | ≤ 0.2
FAWC | ≤ 0.2
PQLS | ≤ 0.2
GPPC | ≤ 0.2
TENK | ≤ 0.2
DHPR | ≤ 0.2
ASQS | ≤ 0.2
ACRW | ≤ 0.2
TKLR | ≤ 0.2
IRKF | ≤ 0.2
HVWG | ≤ 0.2
WSEC | ≤ 0.2
LSPC | ≤ 0.2
TRSP | ≤ 0.2
HGRE | ≤ 0.2
RHDT | 0.791
NWYN | ≤ 0.2
DLCG | ≤ 0.2
YLYE | ≤ 0.2
PPEN | ≤ 0.2
DKCR | ≤ 0.2
RMHV | ≤ 0.2
CMWG | ≤ 0.2

Variant | one-hybrid fitness for binding parS DNA
GPHR | ≤ 0.2
FRKT | ≤ 0.2
RVTQ | ≤ 0.2
VPDS | ≤ 0.2
SEAQ | ≤ 0.2
CHHI | ≤ 0.2
GFLL | ≤ 0.2
SRQV | ≤ 0.2
IKGL | ≤ 0.2
TWKY | ≤ 0.2
YAAG | ≤ 0.2
RTMR | ≤ 0.2
RGVL | ≤ 0.2
TTLY | ≤ 0.2
TWWR | ≤ 0.2
RGQR | ≤ 0.2
HMNA | ≤ 0.2
WGAC | ≤ 0.2
KPYG | ≤ 0.2
NPAI | ≤ 0.2
FQCG | ≤ 0.2
MTVG | ≤ 0.2
YVRY | ≤ 0.2
ACQF | ≤ 0.2

Variant | one-hybrid fitness for binding parS DNA
AGPA | ≤ 0.2
AMSF | ≤ 0.2
TCYT | ≤ 0.2
TQWA | ≤ 0.2
SCIR | ≤ 0.2
QPKR | ≤ 0.2
LSVS | ≤ 0.2
VENK | ≤ 0.2
LRLF | ≤ 0.2
SYDR | ≤ 0.2
EMSR | ≤ 0.2
VYSG | ≤ 0.2
AGAN | ≤ 0.2
FRDY | ≤ 0.2
WYTA | 0.313
NDKW | ≤ 0.2
QMVE | ≤ 0.2
VNRI | ≤ 0.2
RHRN | 0.374
DTTG | ≤ 0.2
SSFK | ≤ 0.2
THRK | ≤ 0.2
ISHA | ≤ 0.2
TGCW | ≤ 0.2

Variant | one-hybrid fitness for binding parS DNA
DQAF | ≤ 0.2
RFDS | 0.954
FDKS | ≤ 0.2
AMPA | ≤ 0.2
HQRG | ≤ 0.2
QVPC | ≤ 0.2
CKYK | ≤ 0.2
MTVS | ≤ 0.2
DIVI | ≤ 0.2
GHSG | ≤ 0.2
SKRG | ≤ 0.2
SIPR | ≤ 0.2
PSNG | ≤ 0.2
MRAH | ≤ 0.2
AMGV | ≤ 0.2
NDDG | ≤ 0.2
QDWS | ≤ 0.2
GNDG | ≤ 0.2
IMDL | ≤ 0.2
QDVC | ≤ 0.2
ERKF | ≤ 0.2
GTFR | ≤ 0.2
EMMT | ≤ 0.2
RYCA | 0.46

Variant | one-hybrid fitness for binding parS DNA
MKMG | ≤ 0.2
QCQR | ≤ 0.2
GKFE | ≤ 0.2
YWKM | ≤ 0.2
ASWT | ≤ 0.2
KTPV | ≤ 0.2
VSMC | ≤ 0.2
GLLF | ≤ 0.2
RPGD | ≤ 0.2
RWSM | 0.216
TDHR | ≤ 0.2
KCRC | ≤ 0.2
TYGR | ≤ 0.2
FRQA | ≤ 0.2
QRVY | ≤ 0.2
KYQT | ≤ 0.2
SNDV | ≤ 0.2
RAGH | 0.268
CGRH | ≤ 0.2
FSHG | ≤ 0.2
AWPA | ≤ 0.2
ETGK | ≤ 0.2
NGSW | ≤ 0.2
QTEA | ≤ 0.2

Variant | one-hybrid fitness for binding parS DNA
PIFG | ≤ 0.2
LIPT | ≤ 0.2
PTMC | ≤ 0.2
RNDW | ≤ 0.2
AIIS | ≤ 0.2
RVYV | ≤ 0.2
VPSV | ≤ 0.2
NAIC | ≤ 0.2
LTIL | ≤ 0.2
STAR | ≤ 0.2
TVTR | ≤ 0.2
RSQH | 0.296
PWTQ | ≤ 0.2
YRNG | ≤ 0.2
CHQW | ≤ 0.2
KPAM | ≤ 0.2
YDYN | ≤ 0.2
HTPQ | ≤ 0.2

From a collection of fitness landscapes (doi:10.1016/j.celrep.2020.107928)
